Results from the supplement of paper PMC9151546.
Most values come without repeats; read them as rough.

What was measured:
CHO-K1 [1] = test: micronucleus frequency (% of nucleated events); higher = more micronuclei (genotoxic)
CHO-K1 [2] = test: hypodiploid nuclei frequency (% of nucleated events); higher = more hypodiploid events (aneugenic)
CHO-K1 [3] = test: relative survival (nuclei to bead ratio vs DMSO control) (% of vehicle control); higher = more surviving cells
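For hypodiploid nuclei frequency (% of nucleated events) in this document: hypodiploid nuclei gated on a flow cytometer with 488 nm excitation after SYTOX Green staining, cultures at 37 °C, positive controls vinblastine without S9 and cyclophosphamide with S9.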
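For micronucleus frequency (% of nucleated events) in this document: cells lysed with nuclei stained by SYTOX Green, then micronucleus-gated events counted against nucleated events by flow cytometry with 488 nm excitation.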
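For relative survival (nuclei to bead ratio vs DMSO control) in this document: Lysed-cell nuclei stained with SYTOX Green and counted against counting beads by flow cytometry at 488 nm excitation, with vinblastine (no S9) and cyclophosphamide (plus S9) as positive controls.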

COC(=O)Nc1nc2ccccc2[nH]1 [Carbendazim]
Conditions | hypodiploid nuclei frequency, CHO-K1 [2] [%] | micronucleus frequency, CHO-K1 [1] [%] | relative survival, CHO-K1 [3]
concentration: 4.5 (µM), S9 metabolic activation: with S9, exposure time: 3-4 hours | 0.1 | 0.8 | 101
concentration: 4.5 (µM), S9 metabolic activation: without S9, exposure time: 24 hours | 6.96 | 6.14 | 72.6
concentration: 5.63 (µM), S9 metabolic activation: with S9, exposure time: 3-4 hours | 0.18 | 1.2 | 109
concentration: 5.63 (µM), S9 metabolic activation: without S9, exposure time: 24 hours | 19 | 14.6 | 64
concentration: 7.04 (µM), S9 metabolic activation: with S9, exposure time: 3-4 hours | 0.22 | 0.88 | 111
concentration: 7.04 (µM), S9 metabolic activation: without S9, exposure time: 24 hours | 33.8 | 22.9 | 56
concentration: 8.8 (µM), S9 metabolic activation: with S9, exposure time: 3-4 hours | 0.32 | 1 | 84.4
concentration: 8.8 (µM), S9 metabolic activation: without S9, exposure time: 24 hours | 37.5 | 23.1 | 43.1
concentration: 11 (µM), S9 metabolic activation: with S9, exposure time: 3-4 hours | 0.12 | 0.84 | 97.5
concentration: 11 (µM), S9 metabolic activation: without S9, exposure time: 24 hours | 38.1 | 29.3 | 44.2
concentration: 13.7 (µM), S9 metabolic activation: with S9, exposure time: 3-4 hours | 0.14 | 1.41 | 97.1
concentration: 13.7 (µM), S9 metabolic activation: without S9, exposure time: 24 hours | – | – | 37.4
concentration: 17.2 (µM), S9 metabolic activation: with S9, exposure time: 3-4 hours | 0.18 | 1.24 | 104
concentration: 17.2 (µM), S9 metabolic activation: without S9, exposure time: 24 hours | – | – | 39.9
concentration: 21.5 (µM), S9 metabolic activation: with S9, exposure time: 3-4 hours | 0.24 | 1.44 | 86.9
concentration: 21.5 (µM), S9 metabolic activation: without S9, exposure time: 24 hours | 14.5 | 41.3 | 44.1
concentration: 26.8 (µM), S9 metabolic activation: with S9, exposure time: 3-4 hours | 0.34 | 1.08 | 143
concentration: 26.8 (µM), S9 metabolic activation: without S9, exposure time: 24 hours | – | – | 12.6
concentration: 33.6 (µM), S9 metabolic activation: with S9, exposure time: 3-4 hours | 0.3 | 1.16 | 158
concentration: 41.9 (µM), S9 metabolic activation: with S9, exposure time: 3-4 hours | 0.28 | 0.76 | 165
concentration: 41.9 (µM), S9 metabolic activation: without S9, exposure time: 24 hours | – | – | 19.8
concentration: 52.4 (µM), S9 metabolic activation: with S9, exposure time: 3-4 hours | 0.42 | 1.16 | 110
concentration: 52.4 (µM), S9 metabolic activation: without S9, exposure time: 24 hours | – | – | 13.3
concentration: 65.5 (µM), S9 metabolic activation: with S9, exposure time: 3-4 hours | 0.46 | 1.02 | 131
concentration: 65.5 (µM), S9 metabolic activation: without S9, exposure time: 24 hours | – | – | 10.8
concentration: 81.9 (µM), S9 metabolic activation: with S9, exposure time: 3-4 hours | 0.58 | 1.46 | 91.2
concentration: 81.9 (µM), S9 metabolic activation: without S9, exposure time: 24 hours | – | – | 12.6
concentration: 102 (µM), S9 metabolic activation: with S9, exposure time: 3-4 hours | 0.9 | 1.46 | 126
concentration: 102 (µM), S9 metabolic activation: without S9, exposure time: 24 hours | – | – | 12.9
concentration: 128 (µM), S9 metabolic activation: with S9, exposure time: 3-4 hours | 0.94 | 1.44 | 103
concentration: 128 (µM), S9 metabolic activation: without S9, exposure time: 24 hours | – | – | 15
concentration: 160 (µM), S9 metabolic activation: with S9, exposure time: 3-4 hours | 0.7 | 1.3 | 111
concentration: 160 (µM), S9 metabolic activation: without S9, exposure time: 24 hours | – | – | 18.4
concentration: 200 (µM), S9 metabolic activation: with S9, exposure time: 3-4 hours | 1.6 | 2.16 | 90.8
concentration: 200 (µM), S9 metabolic activation: without S9, exposure time: 24 hours | – | – | 20.8

CCSC(=O)N1CCCCCC1 [Molinate]
Conditions | hypodiploid nuclei frequency, CHO-K1 [2] [%] | micronucleus frequency, CHO-K1 [1] [%] | relative survival, CHO-K1 [3]
concentration: 4.5 (µM), S9 metabolic activation: with S9, exposure time: 3-4 hours | 0.29 | 1.15 | 81.3
concentration: 4.5 (µM), S9 metabolic activation: without S9, exposure time: 24 hours | 0.37 | 1.03 | 101
concentration: 5.63 (µM), S9 metabolic activation: with S9, exposure time: 3-4 hours | 0.2 | 0.89 | 83.3
concentration: 5.63 (µM), S9 metabolic activation: without S9, exposure time: 24 hours | 0.41 | 1.14 | 97.8
concentration: 7.04 (µM), S9 metabolic activation: with S9, exposure time: 3-4 hours | 0.14 | 0.69 | 83.5
concentration: 7.04 (µM), S9 metabolic activation: without S9, exposure time: 24 hours | 0.43 | 1.03 | 85.3
concentration: 8.8 (µM), S9 metabolic activation: with S9, exposure time: 3-4 hours | 0.18 | 0.95 | 87.9
concentration: 8.8 (µM), S9 metabolic activation: without S9, exposure time: 24 hours | 0.38 | 1.1 | 103.9
concentration: 11 (µM), S9 metabolic activation: with S9, exposure time: 3-4 hours | 0.14 | 1.06 | 95.43
concentration: 11 (µM), S9 metabolic activation: without S9, exposure time: 24 hours | 0.32 | 1.18 | 91.3
concentration: 13.7 (µM), S9 metabolic activation: with S9, exposure time: 3-4 hours | 0.14 | 1.06 | 96.3
concentration: 13.7 (µM), S9 metabolic activation: without S9, exposure time: 24 hours | 0.42 | 1.1 | 93.2
concentration: 17.2 (µM), S9 metabolic activation: with S9, exposure time: 3-4 hours | 0.11 | 1.26 | 91.3
concentration: 17.2 (µM), S9 metabolic activation: without S9, exposure time: 24 hours | 0.42 | 1.37 | 114.12
concentration: 21.5 (µM), S9 metabolic activation: with S9, exposure time: 3-4 hours | 0.16 | 1.08 | 82.7
concentration: 21.5 (µM), S9 metabolic activation: without S9, exposure time: 24 hours | 0.37 | 1.06 | 105
concentration: 26.8 (µM), S9 metabolic activation: with S9, exposure time: 3-4 hours | 0.28 | 0.995 | 66.6
concentration: 26.8 (µM), S9 metabolic activation: without S9, exposure time: 24 hours | 0.54 | 1.12 | 91.6
concentration: 33.6 (µM), S9 metabolic activation: with S9, exposure time: 3-4 hours | 0.25 | 0.96 | 71.8
concentration: 33.6 (µM), S9 metabolic activation: without S9, exposure time: 24 hours | 0.61 | 1.1 | 83.3
concentration: 41.9 (µM), S9 metabolic activation: with S9, exposure time: 3-4 hours | 0.145 | 1.1 | 66.7
concentration: 41.9 (µM), S9 metabolic activation: without S9, exposure time: 24 hours | 0.55 | 1.4 | 73.6
concentration: 52.4 (µM), S9 metabolic activation: with S9, exposure time: 3-4 hours | 0.175 | 1 | 69.4
concentration: 52.4 (µM), S9 metabolic activation: without S9, exposure time: 24 hours | 0.56 | 1.15 | 84.6
concentration: 65.5 (µM), S9 metabolic activation: with S9, exposure time: 3-4 hours | 0.3 | 1.09 | 74.2
concentration: 65.5 (µM), S9 metabolic activation: without S9, exposure time: 24 hours | 0.55 | 1.66 | 76.2
concentration: 81.9 (µM), S9 metabolic activation: with S9, exposure time: 3-4 hours | 0.18 | 1.04 | 74.7
concentration: 81.9 (µM), S9 metabolic activation: without S9, exposure time: 24 hours | 0.76 | 1.29 | 81.05
concentration: 102 (µM), S9 metabolic activation: with S9, exposure time: 3-4 hours | 0.18 | 1.49 | 67.7
concentration: 102 (µM), S9 metabolic activation: without S9, exposure time: 24 hours | 0.97 | 1.39 | 84.5
concentration: 128 (µM), S9 metabolic activation: with S9, exposure time: 3-4 hours | 0.225 | 1.14 | 73.3
concentration: 128 (µM), S9 metabolic activation: without S9, exposure time: 24 hours | 0.59 | 1.32 | 97.2
concentration: 160 (µM), S9 metabolic activation: with S9, exposure time: 3-4 hours | 0.35 | 1.54 | 74.3
concentration: 160 (µM), S9 metabolic activation: without S9, exposure time: 24 hours | 0.77 | 1.7 | 109
concentration: 200 (µM), S9 metabolic activation: with S9, exposure time: 3-4 hours | 0.295 | 1.57 | 71.3
concentration: 200 (µM), S9 metabolic activation: without S9, exposure time: 24 hours | 1.07 | 1.52 | 85.8
